# Results from the supplement of paper PMC3334620.
# The full ranking holds about 33,000 sequences; the median of “E-score (-0.5 to 0.5)” is about -0.035, and the highest 2% start at about 0.35. Some of the results follow.
# Target: T1, Pdr3 (UniProt P33200)
# T1 sequence: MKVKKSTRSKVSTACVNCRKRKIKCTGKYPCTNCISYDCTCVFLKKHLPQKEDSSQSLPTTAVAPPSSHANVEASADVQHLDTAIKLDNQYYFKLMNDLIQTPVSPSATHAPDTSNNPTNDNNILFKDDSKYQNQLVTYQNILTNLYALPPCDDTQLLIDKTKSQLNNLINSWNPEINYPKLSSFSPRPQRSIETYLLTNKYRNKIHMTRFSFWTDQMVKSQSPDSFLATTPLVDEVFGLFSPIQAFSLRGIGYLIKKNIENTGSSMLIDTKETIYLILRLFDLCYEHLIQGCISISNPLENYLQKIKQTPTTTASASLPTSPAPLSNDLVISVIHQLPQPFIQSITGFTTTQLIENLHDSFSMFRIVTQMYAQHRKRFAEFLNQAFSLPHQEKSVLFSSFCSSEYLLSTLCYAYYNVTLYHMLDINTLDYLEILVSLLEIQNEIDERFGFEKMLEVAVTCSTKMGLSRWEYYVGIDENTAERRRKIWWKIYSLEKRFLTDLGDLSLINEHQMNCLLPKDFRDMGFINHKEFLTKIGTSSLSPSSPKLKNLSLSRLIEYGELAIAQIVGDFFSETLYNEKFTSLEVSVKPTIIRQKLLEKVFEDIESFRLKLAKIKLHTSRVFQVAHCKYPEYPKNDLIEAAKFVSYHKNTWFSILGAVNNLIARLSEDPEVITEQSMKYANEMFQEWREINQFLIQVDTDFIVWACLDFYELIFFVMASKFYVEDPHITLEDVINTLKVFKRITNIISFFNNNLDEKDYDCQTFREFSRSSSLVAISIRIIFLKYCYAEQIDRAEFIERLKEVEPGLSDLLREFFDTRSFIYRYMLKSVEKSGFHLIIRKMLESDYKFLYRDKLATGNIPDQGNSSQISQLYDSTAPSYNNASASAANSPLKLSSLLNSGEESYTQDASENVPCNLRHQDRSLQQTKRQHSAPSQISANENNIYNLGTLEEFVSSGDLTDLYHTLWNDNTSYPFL
# Experiment: PBM E-score (8-mer binding enrichment) (E-score (-0.5 to 0.5)); higher = stronger / more preferred TF binding; most listed sequences are background and not binding sites
# Settings: protein concentration: 200 nM; construct: GST-full length
# How it was run: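 For each ungapped eight-base word taken together with its reverse complement, the Universal PBM Analysis Suite assigned an E-score. Binding data came from GST-tagged yeast transcription factors, applied at about 100-200 nM, on universal all-10-mer Agilent arrays made double-stranded by primer extension. Fluorescent anti-GST marked bound protein, and scans were normalised with masliner.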
row,Sequence,PBM E-score
1,ATCTCCGC,0.292
2,GGTATGTA,-0.0939
3,CCACTTGC,-0.0888
4,ACCCATCT,0.00637
5,CGACTCGA,-0.0764
6,AAATGAAA,0.0812
7,AGGCTTAA,-0.106
8,CGTCGGAA,0.411
9,ACCGTCCT,-0.18
10,AAATTGGA,-0.0205
11,ACCAGGTA,-0.139
12,AACGATTG,-0.0641
13,AGGTAGTG,-0.0686
14,CCTTGGAG,-0.0642
15,ACGGTTAT,-0.0715
16,CAATGAGA,-0.229
17,CACACGTA,-0.257
18,CCGTTGCG,0.17
19,CGGAGGGA,0.234
20,GAGAAACA,-0.0163
21,GAGTGTGA,-0.145
22,CGGCCAAC,0.0406
23,ATCCCTAA,-0.28
24,GCAGCGGC,0.0363
25,AAAGCCGC,0.205

row,Sequence,PBM E-score
1,TCTAGAGA,-0.283
2,CGTATTAG,0.0838
3,AAAAGGTT,-0.0641
4,ATTCATCC,0.111
5,AGATAGTC,-0.131
6,CCCTGAGG,-0.279
7,CCATAATA,0.0878
8,CAGTGATC,-0.0442
9,CGTGACCC,0.0915
10,AGTGGCCG,0.0689
11,CCCATCGC,0.115
12,GTTTCTTA,-0.0951
13,GAATTACA,0.0153
14,GCGGGAAA,0.332
15,ATGTCGGA,0.309
16,GGCTGAAA,0.0115
17,CTCTCGCC,-0.144
18,AGATCGAA,-0.067
19,AAAATCTA,-0.0831
20,AAACTCTA,-0.112
21,CAGGTTAA,-0.116
22,CTATGAGA,-0.288
23,AGTGCTGC,-0.0743
24,CAGTTATC,-0.11
25,AGCGGCCA,-0.0085

row,Sequence,PBM E-score
1,CGATCCCC,0.0699
2,AAAATAGA,0.0344
3,ATTCAGTC,-0.0119
4,AAATCACA,-0.174
5,GATGCTAC,-0.0767
6,CCCGTGCC,0.231
7,ACGAGAGA,-0.0507
8,ATGATGGC,0.0224
9,AGCTACAA,-0.109
10,ACATGATG,-0.121
11,AATTACGG,0.144
12,ATAGAATC,-0.0738
13,AACTCGGT,-0.0782
14,AATGAAAT,0.0416
15,TCTCTGAA,-0.254
16,GCTCTACC,-0.226
17,AAAAAGAA,0.00545
18,AGTATCCC,0.0316
19,AACATTGT,-0.043
20,AACCCATA,0.0783
21,GCTCCACC,-0.175
22,ACCCCTCG,-0.00604
23,AGCTCAAC,0.041
24,AGTGACTG,-0.158
25,ACCGTCGG,0.157

row,Sequence,PBM E-score
1,ATCGCCGG,0.373
2,GTTTTTAA,-0.0972
3,GCGTGGAA,0.0102
4,GTACAAAC,0.0119
5,GGCATGTA,0.00346
6,TATGGTAA,0.0412
7,ATAATTAG,0.0627
8,ACCATGTG,-0.159
9,TCCCATCA,-0.209
10,AAAGCGTC,-0.185
11,AGCCCGGC,0.264
12,AAAGTACT,-0.0862
13,CCCACAGC,-0.262
14,CATCCACC,-0.0102
15,GTAAGAAA,0.00091
16,CCAGACCG,0.0829
17,CATAACCA,-0.072
18,GTGAGTCA,-0.211
19,ATTAGTGA,0.0666
20,AACGAGTC,-0.165
21,AGCATTGG,-0.2
22,AGCCTCGC,-0.122
23,GTCAAGTA,-0.325
24,AAAGAGTG,-0.191
25,CACTGCGC,-0.052

row,Sequence,PBM E-score
1,GTCCACTA,-0.141
2,AGTAAAAG,0.104
3,CGAAAGTC,-0.0173
4,CAAAAGTG,-0.092
5,CGCTGTCC,0.153
6,GAGACTCC,0.0113
7,AGGAGAGA,-0.191
8,TGGAAGAA,0.0835
9,ATCATGCC,-0.0715
10,ACTCTACC,-0.0156
11,GGTGGTAA,0.193
12,AACCCAGG,-0.12
13,AGTCGGTA,-0.161
14,ATTGCGAA,-0.0818
15,GAGCTTTA,-0.0106
16,GCGGGACC,0.323
17,TAGACGGA,0.328
18,AAGCTGCT,-0.0969
19,ACACGTAG,-0.284
20,CCTCGAGA,-0.0189
21,ACCTCACT,-0.13
22,ACACATAA,-0.0675
23,CCCCTTAA,-0.204
24,TCTCGGCA,0.217
25,AACGGGAG,0.179

row,Sequence,PBM E-score
1,TCACGCGA,-0.0116
2,GCACGCAC,-0.164
3,AGGGGAGA,-0.195
4,AGTGTACA,-0.202
5,TTTTAAAA,-0.0969
6,CGCAGTCC,-0.00097
7,GAGGCTTA,-0.117
8,CTTCCAAC,0.0212
9,GTGGCTTA,-0.231
10,CGGTAGGC,-0.0277
11,CGTAGCAA,-0.128
12,CGGCGTTC,0.127
13,GCGGAATA,0.398
14,GCATGAAC,0.12
15,CAAGACGG,0.0936
16,ACCGAATA,-0.0346
17,GTCCCGGA,0.394
18,ACCATCGT,-0.106
19,CAGATGGG,-0.123
20,CACCATGC,-0.0273
21,AGCACAAA,0.12
22,GAGTTTTA,-0.05
23,CCTAGTAG,-0.212
24,ATTGATAA,-0.144
25,CCCGACGA,0.193

row,Sequence,PBM E-score
1,CCTGGTAA,-0.0941
2,GGCGTTCA,-0.00773
3,ACCTAAAA,-0.145
4,ACCCACTG,0.0251
5,CAGTACCC,-0.0015
6,TCAGGACA,0.0152
7,CGCGTCTC,0.0716
8,CATCGCAC,-0.0715
9,GACCGTTA,0.0194
10,GCGGTAGA,-0.0184
11,TATACAGA,-0.0427
12,CGCATACA,-0.0893
13,ACTCTTAT,-0.0592
14,CGAGTCGC,-0.0735
15,AAGCGCAT,-0.109
16,ACCAATTA,-0.0106
17,GACAACAC,-0.08
18,TATAGTAA,0.0774
19,CCCCCCTC,-0.285
20,TAGTACGA,-0.00259
21,TATTACCA,-0.138
22,CTCCTAGC,-0.298
